About 14,000 (4.5%) of roughly 310,000 compounds showed an effect of 50% or more. Effects have a minus sign here. This is one part of the list.
Target: human ether-à-go-go-related gene (hERG) potassium channel (human, UniProt Q12809)
Experiment: primary screen, population patch clamp on CHO cells stably expressing hERG
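Further: peak tail current of the secondary pulse compared with the same well before compound.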

Chain of human ether-à-go-go-related gene (hERG) potassium channel (Q12809 whole entry, looked up): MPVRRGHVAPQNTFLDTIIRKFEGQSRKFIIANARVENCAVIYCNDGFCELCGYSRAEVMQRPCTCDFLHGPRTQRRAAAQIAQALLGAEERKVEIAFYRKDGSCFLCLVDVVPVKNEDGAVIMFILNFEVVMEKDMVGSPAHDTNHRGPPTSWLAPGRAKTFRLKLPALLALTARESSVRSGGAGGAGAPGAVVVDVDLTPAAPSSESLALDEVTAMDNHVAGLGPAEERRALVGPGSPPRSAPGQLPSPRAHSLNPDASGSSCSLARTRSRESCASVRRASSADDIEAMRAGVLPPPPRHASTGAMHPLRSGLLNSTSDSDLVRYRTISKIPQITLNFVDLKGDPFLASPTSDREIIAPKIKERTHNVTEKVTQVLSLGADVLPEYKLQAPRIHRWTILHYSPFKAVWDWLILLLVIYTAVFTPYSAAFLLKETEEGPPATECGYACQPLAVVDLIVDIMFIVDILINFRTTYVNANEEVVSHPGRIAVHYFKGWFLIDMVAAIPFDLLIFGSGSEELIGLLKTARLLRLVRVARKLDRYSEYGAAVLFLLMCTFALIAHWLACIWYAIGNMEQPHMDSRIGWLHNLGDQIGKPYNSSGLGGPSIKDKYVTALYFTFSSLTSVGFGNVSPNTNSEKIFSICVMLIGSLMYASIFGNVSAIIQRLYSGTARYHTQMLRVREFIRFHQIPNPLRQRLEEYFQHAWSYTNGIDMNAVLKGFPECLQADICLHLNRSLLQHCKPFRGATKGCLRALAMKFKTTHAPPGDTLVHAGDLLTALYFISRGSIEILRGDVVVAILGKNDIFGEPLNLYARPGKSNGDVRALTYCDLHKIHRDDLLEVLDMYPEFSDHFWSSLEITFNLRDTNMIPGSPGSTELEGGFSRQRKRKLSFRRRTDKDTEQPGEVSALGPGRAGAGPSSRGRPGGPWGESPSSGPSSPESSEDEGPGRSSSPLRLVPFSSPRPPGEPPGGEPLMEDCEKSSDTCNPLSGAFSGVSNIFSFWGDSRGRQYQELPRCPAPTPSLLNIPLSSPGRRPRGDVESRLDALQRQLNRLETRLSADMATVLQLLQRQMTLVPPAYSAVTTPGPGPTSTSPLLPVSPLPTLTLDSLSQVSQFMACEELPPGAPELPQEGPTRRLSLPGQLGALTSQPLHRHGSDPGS

Structure (SMILES)	hERG current change (%, negative = inhibition) at 10uM [%]
CCc1ccc(-c2nc(CN3CCC(C(=O)N4CCN(c5ccccn5)CC4)CC3)c(C)o2)cc1	-68.5
O=C1CCCCCCC1Sc1ccccc1[N+](=O)[O-] (stereo not drawn)	-15.8
CC(C)COC(=O)c1ccc(N2C(=O)c3ccccc3C2=O)cc1	12
O=C(Nc1cnn(Cc2ccc(Cl)cc2)c1)c1ccc([N+](=O)[O-])cc1	-31.4
N#CCc1ccc(Oc2ncc(C(F)(F)F)cc2Cl)cc1	-3.13
O=C1Cc2cc(S(=O)(=O)Nc3cccc([N+](=O)[O-])c3)cc3c2N1CCC3	-4.79
CN(C)/C=N/C(=S)Nc1ccc(Cl)c(Cl)c1	6.42
COc1ccccc1CCNC(=O)C1CCC(=O)N(C2CCCCCC2)C1 (stereo not drawn)	-7.62
CCOc1ccccc1OCC(=O)Oc1ccc(C)c(C)c1	6.76
COCP(=O)(c1ccccc1)c1ccccc1	-0.335
CC(C)C(=O)Nc1cccc(C(=O)N2CCCCC2C)c1 (stereo not drawn)	-0.33
CCN(CC)c1ccc(/C=C2\C(=O)N(c3nnc(C)c(=O)[nH]3)N=C2C)cc1	-35.7
Cc1ccc(/C=C/C(=O)c2ccc(O)cc2)cc1	5.72
CCN(c1c(C)n(C)n(-c2ccccc2)c1=O)S(C)(=O)=O	21.5
COCCCNC(=O)c1ccc2c(=O)n(Cc3ccc4c(c3)OCO4)c(=S)[nH]c2c1	2.75
COc1ccc(-c2nc3nc(C)cc(=O)n3[nH]2)cc1	17.9
CC1(C)CC(=O)C2=C(C1)NC(Nc1nc3ccccc3o1)=NC21CCCCC1	2.86
O=C(OCCCN=C1NS(=O)(=O)c2ccccc21)c1cccs1	1.64
O=C(CN1C(=O)S/C(=C\c2ccccc2)C1=O)NNC(=O)c1ccccc1O	2.95
CCN1C(=O)CS/C1=N\S(=O)(=O)c1ccc(C)cc1	0.522
CCOc1ccc(S(=O)(=O)N2CCC(C(=O)NC3CC3)CC2)cc1Cl	-2.44
COc1ccc(C(=O)N2CCC(O)(c3ccc(F)cc3)CC2)cc1OC	-38.6
O=C(O)CC(NC(=O)c1cccc(F)c1)c1ccc(OC2CCCC2)cc1 (stereo not drawn)	15.1

Structure (SMILES)	hERG current change (%, negative = inhibition) at 10uM [%]
CCOC(=O)CON1C(=O)c2ccccc2C1=O	-5.5
Clc1ccccc1CSc1cc2c(nn1)-c1ccccc1CC2	-38
COc1ccc(CN2CCN(C(=O)CCC(=O)c3ccc(C)s3)CC2)cc1OC	-20.3
CCOC(=O)C1CCN(Cc2ccc3ccccc3c2)CC1	-17.1
CCSc1nnc(NC(=O)CN2C(=O)NC3(CCCC3)C2=O)s1	0.00088
CCCCNc1c(-c2cccc(SC3CCCCC3)c2)nc2ccc(Cl)cn12.O=C(O)C(F)(F)F	3.32
CSc1ccc(CNc2ccc(Cl)cc2)cc1	0.308
O=C(NCCC1=CCCCC1)c1cccc2c1C(=O)N(C1CCCCC1)C2	9.87
Nc1nn(S(=O)(=O)c2cccc3nsnc23)cc1-c1ccc(Br)cc1	-3
CCOc1ccc(C(=O)CCC(=O)N(CC)CC(=O)NCc2ccc(Cl)cc2)cc1	-70.3
O=c1[nH]c2ccc(Cl)cc2c(O)c1-c1ccccc1	15.6
COCc1nnc(NC(=O)CSCc2ccccc2)s1	16.9
COC(=O)c1cccc(COC(=O)CNC(=O)c2ccco2)c1	6.79
CC(c1ccccc1)N1CCc2[nH]c(=S)[nH]c(=O)c2C1 (stereo not drawn)	11
O=S(=O)(c1ccccc1)N1c2cc(Cl)ccc2Oc2nc3ccccc3nc21	-5.04
Cc1nc(N2CCCCC2)sc1C=O	22.9
CCC(C(=O)OCC(=O)Nc1ccc(F)cc1)c1ccccc1 (stereo not drawn)	-28.7
OCC1CCCCN1CCNCc1cn[nH]c1-c1cccc2ccccc12 (stereo not drawn)	-29.1
C=CCn1c2ccccc2c2nnc(SCC(N)=O)nc21	18.3
Cc1cc(C)cc(-n2cccc2/C=C2/C(=N)N3C(=NC2=O)SN=C3S(C)(=O)=O)c1	-12.6
O=C(CSc1nccn1-c1ncc(C(F)(F)F)cc1Cl)c1ccc(Cl)cc1	-1.36
CCCC(=O)N(Cc1cc(=O)[nH]c2ccccc12)c1ccc(C)cc1C	-6.27

Reference: publication PMC4336329 (PLoS ONE, 2015)
